According to PubChem BioAssay AID1745845 (National Center for Advancing Translational Sciences (NCATS), 2022):
In all, about 360,000 compounds went through this assay and about 2,600 (0.72%) were called active. The inconclusive results got no clear call from the source; some entries with a clear call stand among them for comparison. Calls follow the shape of the dose curve; as a rule, active = well fitted inhibition curve with a large enough effect; inconclusive = small, poorly fitted or top-dose-only effect; inactive = no such curve, though single readings can be large or run the other way. A potency beside an inconclusive call is a rough fit, not a confirmed value.

test: Primary qHTS for Inhibitors of ATXN expression; conditions: HEK-293 ATXN2-luciferase reporter, luminescence, 24 h; activity change, negative = inhibition: at 57 µM (top of the series); also: nearly all actives have a fitted effect of over 55% in size
Summary of the method: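 ATXN2-luciferase reporter cells (luciferase flanked by upstream and downstream ATXN2 gene portions) were treated 24 h at 37 °C with compounds at up to 57 uM. SteadyGlo luminescence gave expression; GF-AFC fluorescence gave viability.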
% is scaled to controls: 0 for no effect and ±100 for the full control effect; potency is read from the fitted curve at half-maximal effect; tags tell the direction and shape of the fitted curve.

Potency, active:
Cc1cccc(NC(=S)N(CCCN2CCCC2)Cc2cccn2Cc2ccc(Cl)cc2)c1 31.6 µM
O=C(CN1C(=O)c2ccccc2S1(=O)=O)N1CCc2ccccc21 2.51 µM
Cc1nc2ccc(NC(=O)c3cccs3)cc2c(=O)n1Cc1ccc(Cl)cc1 14.1 µM
CCOC1=C2CN(S(=O)(=O)c3ccc(C)cc3)[C@H](c3cccc4ccccc34)C[C@H]2C(C#N)(C#N)C(C#N)(C#N)C1 14.1 µM
COc1ccc(Cl)cc1NC(=O)Nc1cccc([N+](=O)[O-])c1C 20 µM
O=c1c2ccccc2sc2c(CO)ccc(NCCN3CCCCC3)c12 18.9 µM
COc1ccc(Cn2c(-c3ccc(C)cc3)c[n+]3ccccc23)cc1 16.8 µM

Potency, inconclusive:
CCC(OC(=O)c1ccc(S(C)(=O)=O)c([N+](=O)[O-])c1)C(=O)NC1C2CC3CC(C2)CC1C3 (configuration not stated) 8.91 µM [inhibitor, single point]
CCOc1ncccc1C(=O)N=C1SCCN1C(=O)c1cccnc1OCC 37.7 µM [inhibitor, single point]
O=C(N/N=C/c1ccc2c(c1)OCO2)c1ccccn1 12.6 µM [inhibitor, partial curve, poor fit]
Cc1nn(-c2ccccc2)c(C)c1NC(=O)COC(=O)CC(C)c1ccccc1 (configuration not stated) 3.16 µM [inhibitor, partial curve, poor fit]
COc1cccc(-c2csc(NC(=O)Nc3ccccc3)n2)c1 39.8 µM [inhibitor, single point]
O=S(=O)(NCc1ccccc1Cl)c1ccc(-c2cnc(C3CC3)o2)cc1 28.2 µM [inhibitor, single point]
COc1ccc(N2C(=O)CSC23C(=O)N(Cc2ccccc2F)c2ccccc23)cc1Cl (configuration not stated) 25.1 µM [inhibitor, partial curve, poor fit]
CCCC(=O)Nc1ccc2nc(SCC(=O)N3CCCC3)sc2c1 33.6 µM [inhibitor, single point]
CCNc1nc(Oc2c(Cl)cccc2Cl)cc(C(F)(F)F)n1 39.8 µM [inhibitor, partial curve, poor fit]
CCc1nc2ccc(C(=O)Nc3ccc(C(=O)N(C)C)cc3)cn2c1N(C)CCCc1ccccc1 31.6 µM [inhibitor, single point]
CC(C)c1cc(C(C)C)c(CC(=O)NS(=O)(=O)Oc2c(C(C)C)cccc2C(C)C)c(C(C)C)c1 38.5 µM [inhibitor, single point]
Fc1ccc(Sc2nc(-c3ccccc3)nnc2C(F)(F)F)cc1 31.6 µM [inhibitor, single point]
Cc1cc(C(=O)COc2cccnc2[N+](=O)[O-])c(C)n1-c1ccccc1 2.67 µM [inhibitor, full curve, poor fit]
CC1(C)CC(=O)C/C(=N/Nc2nc3ccccc3s2)C1 5.32 µM [inhibitor, full curve, poor fit]
CCOc1ccccc1N(C)S(=O)(=O)c1ccc2c(c1)CC(C)N2C(=O)C1CC1 (configuration not stated) 39.8 µM [inhibitor, single point]
Cc1nc(COC(=O)c2cc(O)c3ccccc3c2O)cs1 28.2 µM [inhibitor, partial curve, poor fit]
O=C(CN(Cc1ccccc1)S(=O)(=O)c1ccccc1)N/N=C/c1ccccc1[N+](=O)[O-] 39.8 µM [inhibitor, single point]
CC1=NOC(=O)/C1=C\c1ccc(-c2ccc(Cl)cc2Cl)o1 25.1 µM [inhibitor, single point]
CSc1nc2ccc3nc(NC(=O)C4COc5ccccc5O4)sc3c2s1 (configuration not stated) 25.1 µM [inhibitor, partial curve, poor fit]
Cc1nc([N+](=O)[O-])c(Br)n1CC(=O)c1ccc(Cl)cc1 39.8 µM [inhibitor, single point]
OCC1CCCN(Cc2cn(Cc3ccccc3)nc2-c2cc3ccccc3o2)C1 (configuration not stated) 25.1 µM [inhibitor, partial curve, poor fit]
C[C@H](CO)N1C[C@H](C)[C@@H](CN(C)Cc2ccc(Cl)c(Cl)c2)Oc2c(NC(=O)c3ccncc3)cccc2C1=O 28.2 µM [inhibitor, single point]
CN(C)c1ccc(Nc2nc(N)n(C(=O)c3c(F)cccc3F)n2)cc1 38.5 µM [inhibitor, single point]
Cc1nc(NC2=NCN(CCCN3CCOCC3)CN2)nc2c(C)cccc12 17.8 µM [inhibitor, single point]
OC(c1ccccn1)(c1ccccn1)c1ccccn1 17.8 µM [inhibitor, single point]
Cc1ccc2onc(CC(=O)N3CCN(c4ccc(Cl)cc4)CC3)c2c1 28.2 µM [inhibitor, partial curve, poor fit]
O=C(CN1CC(=O)Oc2ccccc21)OCC(=O)c1ccc(F)cc1 6.7 µM [inhibitor, partial curve]
NC(=O)c1nsc(C(=O)N(c2ccccc2)C(C(=O)NC2CCCC2)c2ccc3ncccc3c2)c1N (configuration not stated) 37.7 µM [inhibitor, single point]
COc1ccccc1CNC(=O)C1(C)CCN1Cc1ccc(OC(F)(F)F)cc1 (configuration not stated) 22.4 µM [inhibitor, single point]
Cc1ccc2c(c1)Cc1nc3ccccc3nc1-2 20 µM [inhibitor, single point]
Cc1c(C(=O)Nc2ccc3oc(-c4cccnc4)nc3c2)oc2ccccc12 15.8 µM [inhibitor, partial curve, poor fit]
Cc1cc(S(=O)(=O)c2ccc([N+](=O)[O-])cn2)ccc1Br 37.7 µM [inhibitor, single point]
CC(C)Cn1c(=O)c(C(=O)Nc2ccccc2S(N)(=O)=O)c(O)c2ccccc21 39.8 µM [inhibitor, single point]
CC(C)CC(N)c1csc(NC(=O)Nc2ccccc2C(C)C)n1 (configuration not stated) 31.6 µM [inhibitor, partial curve, poor fit]
COc1ccc2[nH]c(=O)c(CN(CC3CCCO3)C(=O)Nc3ccc(F)cc3)cc2c1 (configuration not stated) 25.1 µM [inhibitor, single point]
CC(=O)N(C)Cc1ccc(C(=O)CCl)cc1 37.7 µM [inhibitor, single point]
O=C(Nc1nnc(-c2cccs2)o1)c1cc(-c2ccccc2)nc2ccccc12 28.2 µM [inhibitor, partial curve]
CC(C)(C)c1[nH]nc2c1C(Cc1ccccc1)C(C#N)=C(N)O2 (configuration not stated) 4.47 µM [inhibitor, partial curve, poor fit]
COc1ccccc1CNc1nc(NCCOc2ccccc2)c2sccc2n1 28.2 µM [inhibitor, partial curve]
COc1cc(NC(=O)Nc2nc(C(N)CCc3ccccc3)cs2)cc(OC)c1OC (configuration not stated) 35.5 µM [inhibitor, single point]
CCOc1ccc(N2C(=O)CC(N(CCc3ccc(OC)c(OC)c3)C(=S)Nc3ccccc3)C2=O)cc1 (configuration not stated) 39.8 µM [inhibitor, single point]
Cc1ccc(C(=O)NNC(=S)NC(=O)c2ccco2)cc1 18.9 µM [inhibitor, partial curve, poor fit]
CCOC(=O)Nc1ccc2c(c1)C(=NNC(N)=S)c1ccccc1-2 25.1 µM [inhibitor, single point]

Potency, inactive:
CC(C)(C)OC(=O)NCCCCCc1nnc(SCc2ccc(F)cc2)o1
COc1ccc(N2CCN(CC(O)COc3ccc(C)cc3C)CC2)cc1 (configuration not stated)
CCOc1ccc(S(=O)(=O)N2CCN(C(=S)NCc3ccco3)CC2)cc1
CCc1nc2c(OCC(=O)C(C)(C)C)cccn2c1N(C=O)Cc1ccccc1
COc1ccc(Cl)cc1-n1c(=S)sc2c(=O)[nH]c(SCC(=O)NCC3CCCO3)nc21 (configuration not stated)
Cc1ccc(NC(=O)C(C)N=C2NS(=O)(=O)c3ccccc32)cc1F (configuration not stated)
Cc1ccc(S(=O)(=O)N(C)C)cc1NC(=S)N1CCc2ccccc21
Cc1cc2n(n1)C(c1ccc(O)cc1)Nc1ccccc1-2 (configuration not stated)
COc1cccc(-n2nc(C(N)=O)c(O)cc2=O)c1
CC1CCN(C(=O)c2cc3c(ccc4ccccc43)o2)CC1
COc1ccccc1-n1cc(-c2ccc([N+](=O)[O-])cc2)[nH]c1=S
CCOc1ccc(N2C(=O)CC(Sc3nnnn3-c3ccccc3)C2=O)cc1 (configuration not stated)
C=C(C)COc1ccc(-c2nc(N)ncc2Oc2ccc(OC)cc2)c(O)c1
CC(C)[C@@H]1Cc2[nH][nH]c(=O)c2[C@H](CCc2ccccc2)O1
Cc1ccc(-c2nc3ccccc3n3nnnc23)cc1

Activity change, negative = inhibition, inconclusive:
CCOC(=O)N1CCN(c2nc(-c3cccs3)nc3ccccc23)CC1 -41.2% [inhibitor]
Cc1c(C#N)c(N)nc(Cl)c1C#N -65.8% [inhibitor]
